In the RNAGym collection of RNA variant scans (doi:10.7554/elife.90254):
The source gives no read counts; variants with many changes may rest on few reads.

B1: LINE1-full (parent)
chain: UACGUAGGUGGUUUUCCCCUGAUAGUGCUAAGGGGGCCUGGAAGUUUGGACUGGGCAGAGCUCAACACAGCGUGGCAAAGUGGCUGUGGCUAGACUGCCUCUCUGGAUUCCUCGUCACUCAGCAGGGCAUCUCUGAGAGAAAUGCC

Variants of: B1
Experiment: self-cleavage, relative activity (ratio to wild type); higher = more cleavage; in vitro, sequencing; the parent is a self-cleaving ribozyme

Variant	self-cleavage
U81C U85A U112C A121G	0
U81C U85C U100C	0
U81C U91A A117U A121G U134C	1.15
U81C U100C U102A	1.95
U81C U104C A141G A142G	1.97
U81C U112A U115A A141G	1.28
U81C U112C A124U	1.31
U81C U112G A138U	1.53
U81C U115A A129G	2.44
U81C U119A A124C	2.3
U81C U130C U143C	0.98
U81C U134A A141G	2.13
U81G G93A A121U	0.05
G82A A121G A138U	1.91
G82A A121U U134C	2.05
G82A A136G A140G	1.88
G82A U96C C146U	0.09
G82A U112A A117G	2.34
G82A U112C A141G A142G	2.57
G83A U87A U96C U100C	0.1
G83A U102C A141G	0.77
G83A U112A G125U	0.83
G83C U109C U115C A142G	0.22
C84A A117U A138G	0.06

Variant	self-cleavage
C84U A107G A140G	0.12
C84U C95A U132A	0.03
C84U U85C U96C	0
C84U U87A U143C	0.27
C84U U87C A129G	0.01
C84U U100C A107G	0
C84U U130C U134C	0.17
U85A A117G U132A U143A	0.88
U85A A121G A141G	0.11
U85A A121U A138G	0.09
U85A A140U A141G	0.05
U85A C95U U134A	0.11
U85A C113U U130C	0.07
U85A G93U A129G	0.05
U85A U87A A92U U108C C123U	0.06
U85A U96C A142G	0.14
U85A U104C U108C	0.44
U85A U104C U108C U109C	0.36
U85A U108C A140G	0.18
U85A U108C U115A	0.15
U85A U109A A124G	0.09
U85A U109C A138G	0.06
U85A U119G A141G	0.05
U85A U134C A142G	0.19

Variant	self-cleavage
U85C A92U A94U G139A	0.16
U85C A94G U96A U143C	0
U85C A94G U132A	0
U85C A121G U134G	0.45
U85C A124G A136U	0.1
U85C A124G A140G	0.04
U85C A141G A142G	0
U85C C98A A138G	0.09
U85C C113G U119C	0.25
U85C C120U U134C	0.26
U85C C128U U132A	0.12
U85C G88A U100G U112G	0
U85C G105U U119C	0.24
U85C G106A A124U A129U	0.11
U85C G106A A136G	0.26
U85C U87A A140U	0
U85C U87G A117G	0
U85C U96A U100A	0.12
U85C U96C A129G	0
U85C U96G U143C	0.12
U85C U100C A117G	0
U85C U100C U112C	0
U85C U102C A138G	0
U85C U102C C111U	0.17

Variant	self-cleavage
U85C U104C A129U	0.43
U85C U108A A121G A141G	0.24
U85C U108A A129G	0.22
U85C U108C A136G G137A	0
U85C U115C A124U	0.31
U85C U132C U143C	0.16
U85G U87A G93A U132C	0.02
G86A A92U C116A	0.07
G86A G88A U96C	0.02
G86A U87A U134C	0.11
G86A U102C A142G	0.06
G86A U115C A140G	0.07
G86U A94G U96C A140G	0
U87A A92G U96C A117G	0
U87A A94G U119A	0.05
U87A A94G U134C	0.05
U87A A107G A138G	0.13
U87A A121G A138G	0.18
U87A A121G U134C A142G	0
U87A A124C U134C	0.07
U87A A124G U134A	0.06
U87A A136G A142G	0.05
U87A C98U A124G	0.06
U87A G88C C95G U96A U130C A138U U143C	0.04

Variant	self-cleavage
U87A G89C U115C	0.01
U87A U96A U109A	0.09
U87A U96C A141G	0.01
U87A U96C C101U U115A	0.09
U87A U100C C101A A117U A129U	0.05
U87A U102C C128U	0.03
U87A U102C U112C	0.06
U87A U104A A129U	0.1
U87A U104A U115C A124U A140G	0.08
U87A U108C U143C	0
U87A U112C A117U	0.04
U87A U112C A124G	0
U87C A92U U134A A138U	0.12
U87C A117C A140G	0.42
U87C A117U U119C	0.19
U87C A121U U143C	0.32
U87C A140U U143C	0.26
U87C C111A A141G	0.28
U87C G88U U104G	0
U87C G114A A121G	0.15
U87C U91C C123U	0.13
U87C U100A U104C	0.12
U87C U112A A140G	0.17
U87C U112C U115C A141G	0

Variant	self-cleavage
U87C U115A C133U	0.28
U87C U119A A121G A140G	0
U87C U119C A138G	0
U87C U132A U134C	0.4
U87C U134A U143C	0.18
U87G C98A A138G	0.03
U87G U91A U130C	0
G88A A107G U119C	0.05
G88A U91C A138U	0.08
G88A U108C U109C	0.03
G88C A107G A138U A142G	0
G89A A94G A121G U143C	0.08
G89A A117U A136G	0.01
G89A U91G A142G	0.04
G89A U102A U109C C110U C116U	0.03
G89A U102C U119C	0.03
G89U A92G U115C	0.27
C90A A94G A138G	0.02
C90G U119A U130C A142G	0.03
C90U G105A U115C	0.02
C90U U130A A140G	0.04
C90U U132C C146U	0
U91A A92G A141G	0.07
U91A G97A A117G U119A	0.04

Variant	self-cleavage
U91A U104A A142G	0.56
U91A U130A A138G U143C	1.12
U91A U130C A141G	0.18
U91C A92U G97A C116A A140G	0.02
U91C A117G A136G	1.01
U91C C116A C145A	0.32
U91C G127A U134C	0.86
U91C U96C U104C A140G	0
U91C U100C G139A	1.93
U91C U100C U143C	0
U91C U109A A124G A138U	1.6
U91C U112A A138G C146U	0.89
U91C U134C A142G	0.66
A92C U96C A107G	0
A92C U112C U119A U132C	0.26
A92G A117U A140G	0.1
A92G A121U A142G	0
A92G A136G A141G	0.03
A92G U96C C116A A117G U130A	0
A92G U96C U119A	0
A92G U100C C103A A140G	0.14
A92G U132A A140G	0.14
A92U A117G C128U A140U	0.73
